Measured values as given in the supplement of paper PMC11417369.
The other results are listed elsewhere or left out.

System: PfHDP1 homeodomain (GST-tagged)
Assay: gcPBM binding intensity (ln(normalized median fluorescence intensity)); higher = stronger DNA binding
Outline: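 Each value is the highest Masliner-normalised natural-log median intensity across replicate spots of either orientation of a probe. The probes were primer-extended double-stranded 36-bp intergenic genomic sequences on an Agilent 4 × 180k array, alongside negative controls, exposed for 1 h to GST-tagged P. falciparum DNA-binding domains expressed in E. coli. Bound protein was picked up with Alexa488 anti-GST antibody and scanned at 488 nm.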

Sequence | gcPBM binding intensity (ln)
TAAAACAATACTTTGTGCTTCTCTGGTTTTTTTTTT [GTGCAC_negctrl_site284] | 6.04
TTTTATTTCTTTGCACCATTTTAAATACAAACAAAT [CACACA_negctrl_site1553] | 11
TTCAAAAGCCGGATAACATGCAGTAGTAGAACAAAC [TGCATGCA_site413] | 7.42
TTTATTTATGTTGAAACATGCAAAAAGTTATTTATA [TGCATGCA_site716] | 6.48
ACTCCATAATATTGATGTACTATAATGCATTTATTT [XGTACX_site5562] | 7.19
TTATAGAATTTATTTACACACAAACATTTATACTTT [CACACA_site7592] | 6.49
TATTTATTTTCATATAGTACTTTTTTCAGGCATATA [XGTACX_site6691] | 6.37
ATATGAACATTTACATGTACATGTAAATGTAACACT [XGTACX_site4574] | 6.33
GAAAATATGTAATAGTGTACACATATATATGTATAT [XGTACX_site306] | 6.73
TGCTCATTCCTGTCATGTACATATTATATATATATA [XGTACX_site6890] | 8.68
CACAAAAAGAAACACACACACATATATATATATATA [CACACA_site999] | 9.35
ATTCTAAATAATAAGAGTACAAATAATATGGAGAAG [XGTACX_site5209] | 7.15
TGTACAAATATGTACACACACACATATTTATTTATA [CACACA_site6419] | 6.78
TATGTATAAAAATAATGTACAAAATATATTATATGT [XGTACX_site2794] | 6.46
ATACTATAATAATACACACTCATTAGATATATAAAG [CACACA_site7787] | 6.82
AAAAAACAAAAAAATACACACATAAAAAGGTTTTAG [CACACA_site3584] | 6.58
TAAACATAACAAAGGAGTACAAAACTTGATCAGTTC [XGTACX_site3114] | 6.67
AAATATGTCAAATATACACACATAATAAATATAATA [CACACA_site2310] | 6.39
TTATAAGATGATTATAAAATCAAATTCATTCTTTTA [CACACA_negctrl_site1338] | 5.78
GAAATGGGTAAACATACACACACACCGATATATATA [CACACA_site8610] | 6.89
TAACAATTATGCTGGTGTACGTTTGAAATTGGGTAT [XGTACX_site6846] | 6.58
AAAAATTTCTATTTTTGTACTTACTTTTTAGTAATA [XGTACX_site5236] | 5.8
AATAAATGGAAAAGGTGTACACAAAAAAAAGGGAAA [XGTACX_site4956] | 7.54

Sequence | gcPBM binding intensity (ln)
AAAAAAAAAAAAAAAACATGCAGTTAGTGGTTTTTT [TGCATGCA_site243] | 6.61
TACACAAGAAAATTCACACACACACCGATATATATA [CACACA_site6008] | 6.93
AAATCTTCATAATAAAGTACTTAACTCTTGGTGTTA [XGTACX_site6112] | 6.24
CTTATATTTGGACACACACACAATAAAATGAAAAAA [CACACA_site6614] | 6.8
AAAAAAAAAGACAAAAGTACAAAGGTTCATAATTTA [XGTACX_site3978] | 6.13
GATTTACATTTTGATGAAAATAATAAAATGTGGAAA [TGCATGCA_negctrl_site409] | 6.4
ATATTTTATTTTTAAAGTACAAAAGAAAAGAATAAT [XGTACX_site8247] | 6.56
AACATCAAAATATGCACACAAACAATTAGCGGTAGT [CACACA_site2521] | 9.95
AACAAAATAGGGAACACACACATGTCGATATATAAA [CACACA_site7265] | 6.71
ATACACACATATATGTGTACATATACATATATATAT [XGTACX_site6744] | 8.56
ATAATATGAAGAAGCACACTCAATTAAATACAGATA [CACACA_site4690] | 6.71
CACAGACACGGACACACACACATATATATATATATA [CACACA_site5248] | 9.37
ATATATATATAAAGCAGTACACACATTTATTTTAGA [XGTACX_site7226] | 8.41
TATGAACTTTTGGGGGTGCCTTAAAATGTATATTCT | 7.15
TCCCAATTTATTATGTGTACTTATTATATACATATA [XGTACX_site4033] | 6.68
TATCAAAGTAGAAGAGATCGATGTCATATTGTGATG [GTGCAC_negctrl_site42] | 6.67
TTATGAATACTTCAAGTGCATTTATTTTATATGACA | 8.23
ATATTCTAAATAAAGGGTACACAAAAATAATTAAAG [XGTACX_site5529] | 6.9
ATTGTGGATATTCTTACACACAAATTTATATATAAA [CACACA_site2601] | 6.4
TTTTGTATATTATATGTACACACAATAAGTTAATAT [CACACA_site8207] | 6.71
TATTTGTAATATTATACACACATTATGTATTACAAA [CACACA_site3386] | 6.92
CATAAATATTTGTGTTGTACAAATATATATATTTAT [XGTACX_site7363] | 6.55
TTGTGTGAGCAAGTAGTGCATAATATAAATAAAAAA [GTGCAC_site9802] | 9.89

Sequence | gcPBM binding intensity (ln)
TGAAATTTGTTATATGCATGTAAAATATTACGACGA [TGCATGCA_site201] | 6.59
AAAATTGAAGGTAGAAGTACATATTTATTTCAATAA [XGTACX_site8732] | 6.11
TATATAATATATTTATGTACGTATTTAAAAATTTAT [XGTACX_site160] | 6.5
GAAGGAAATAAATCAACACACATATATTATATATAT [CACACA_site2188] | 7.11
TGTATTTATTAATGTACACACATGCGTATGTTCGTT [CACACA_site5892] | 6.82
AAGAATTATTTTTTATGTACTTATATGTCAATTTTC [XGTACX_site6676] | 6.35
ATAGAATATTTTATTACACACAGAATAATAAAAAAT [CACACA_site6190] | 6.29
TTATTTTTTTTAGCATATACAAATATATATATATAT [GTGCAC_negctrl_site4] | 8.98
CTAAAAGGATGATGAATGCACTATTATTTATATGGA | 7.69
TTTAAAAATATTTCACGTACGCATTTTAAAAAGTAT [XGTACX_site8026] | 6.45
AAATAGTAAGAGATGGTGCGTTTCCTTTTTTTTTTT [GTGCAC_site9663] | 6.67
TTTTTTTCATATATATGTACATAATTATATATGCAT [XGTACX_site3257] | 6.68
TTAATTATATGGTAAACAAATAAATGTGAAAGGAAA [XGTACX_negctrl_site389] | 6.89
CGTGGGAGCAGACACACACACACACCCATATATATA [CACACA_site334] | 6.67
ATATTTATATGAATCACACACAAAAAATATAGAGAT [CACACA_site7775] | 6.66
ACTGTGGGAATAACCACACACACACCCACATATATA [CACACA_site3542] | 6.54
TTATTATATAAATAAAAAAAAAAAAAAAAAAAAAAA [CACACA_negctrl_site1455] | 5.95
TATATACGCATGCGCACACACAAGTGGGAAATTTGG [CACACA_site1785] | 7.08
AATATGTTTTTTAGATGTACAGATTAAATATTAAAA [XGTACX_site7308] | 6.37
CATAAATACAAATATACACACATATATATATATATA [CACACA_site2633] | 9.4
AAATCACAAAAAAAAAAAAAAATATATATATATATA [CACACA_negctrl_site10] | 9.28
TAGAAATATATTTATTGTACATTGTATATATTATAT [XGTACX_site7584] | 6.26
TTGAAGTGTACTATTTTATATATATATATACATTTT [CACACA_negctrl_site224] | 6.83

Sequence | gcPBM binding intensity (ln)
ATTATGTGCCAATACACACACACATCTATATTTATA [CACACA_site6359] | 7.13
TCTTTTTTTTTTACTAGTACTTAAAAAAAAAATATG [XGTACX_site4395] | 6.4
TAATGTTCCTATATAGTGCAATTATGTTTTATTTCT | 8.94
TACGATGTTTTAAAATGTACATAAAAGTCACATAAG [XGTACX_site3297] | 6.32
TTTTAATTTTTAAGACGTACTATCATTTGATAATAA [XGTACX_site3942] | 6.02
TATTTATAAATATACGCACACATTAATATATATATA [CACACA_site3969] | 8.52
ATATTATTTATTTTTAAATTATATTGATTATTTTTT [CACACA_negctrl_site451] | 5.81
GTTGGTAGGCGGTACGGTACACGTAGTATTTTTCTT [XGTACX_site4213] | 6.4
AGTATGTAAATGTGCCATATATATATTAAATACATA [CACACA_negctrl_site14] | 6.54
TATGATAAATATGGAGCACACACACCGAAACATACA [CACACA_site8031] | 7.57
AAGTGTTCTTGTTATACACACACATATATATATATA [CACACA_site8251] | 9.27
TAGCATGATTTGCCTTGTACACAACCGTTTTAATAA [XGTACX_site7911] | 6.46
AAAAAAAAAAAAAAAACACACAAACATCAAATTACT [CACACA_site6950] | 6.65
AAATTTAAAAATAAAGAACACACATATGTAAAATAT [CACACA_site9252] | 6.84
AATTTCAATTTCTGTTGTACACTTTTTAATAGTAAA [XGTACX_site4085] | 6.23
TTTTGTATTTTTCACACACACATAAGTAAACAATAA [CACACA_site1899] | 6.81
TATATTATATATATATGTACATATTATTATATCTAA [XGTACX_site3835] | 6.39
TAAATGAAAATATGTACACACTTGAAAATTTTTATG [CACACA_site5599] | 6.58
ATACAATAATATAAATGTACAAATTATATCTTCATT [XGTACX_site8994] | 6.35
AAATTAAATATTATATTAATTCTTAAATTTTTTTTT [CACACA_negctrl_site439] | 5.68
